# Reference: the supplement of paper PMC11417369
# ± gives the standard deviation of the averaged measurements. Some of the results follow.
# System: PfAP2-EXP AP2 domain (GST-tagged)
# Assay: gcPBM binding intensity (ln(normalized median fluorescence intensity)); higher = stronger DNA binding
# In short: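 An Agilent 4 × 180k array of primer-extended double-stranded 36-bp intergenic genomic probes, with negative controls, was incubated for 1 h with GST-tagged P. falciparum DNA-binding domains expressed in E. coli. Alexa488 anti-GST antibody detected bound protein, scanned at 488 nm. Binding intensity is the highest Masliner-normalised natural-log median intensity across replicate spots of either probe orientation.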
row,Sequence,gcPBM binding intensity (ln)
1,ATAACATGAACATATGTTACACAAACATACATACAT [XGTACX_negctrl_site365],8.77 ± 0.22
2,AATCAAATATTTAAATGTACTCAAGAAGGCTTAATC [XGTACX_site6907],8.6 ± 0.4
3,AAAAAATATTTTAGTGGTACATTTGTAGCTCTCAAA [XGTACX_site4859],8.39 ± 0.4
4,GAAAAAAAAAAAAAAAAACACACGGTACATTCAAAG [CACACA_site303],8.5 ± 0.58
5,TATGAAGACACAAATACACACACTCAAAAAAAAAAA [CACACA_site2660],8.45 ± 0.54
6,AAAAATATAATATAATGTACACAAAAAAAAAAAATC [XGTACX_site1427],8.73 ± 0.49
7,AAATTATAATTAGGAACACACATATATATATATATA [CACACA_site3098],10.1 ± 0.33
8,TACATGTATAATATAATACACACTATATAATATACA [CACACA_site2239],8.32 ± 0.35
9,TACATACATACATACATACACACATATATATATATA [CACACA_site1996],10.1 ± 0.57
10,ATCAAACAAAAAATAAAAAAATGCGACATGTGTACA [TGCATGCA_negctrl_site164],8.94 ± 0.65
11,TTGAATACATATATATGTACATATTCTATGGTTAGA [XGTACX_site4088],8.59 ± 0.18
12,CAAGGACAATTTACAAACATAATATATGTATATATA [TGCATGCA_negctrl_site5],8.3 ± 0.39
13,TATAAAATTTAAATTATACACACTTAAGTAACATCA [CACACA_site531],8.74 ± 0.35
14,GAAAATTATGTATATTGTACAAATATTATATTAAAT [XGTACX_site2467],8.54 ± 0.33
15,TTAATATTTTTAATTTGTACATATAATTAAATCTCT [XGTACX_site1736],8.31 ± 0.47
16,ATTATCTTCAAGTATGTACACACTATATATAATAAA [CACACA_site2441],8.66 ± 0.38
17,CTGAGGAAGCTAATTACACACATGCATATTTTTTTT [CACACA_site2177],8.87 ± 0.54
18,TGGTGTTTTTTTTAATGTACTTATAAAATAATACAT [XGTACX_site6574],8.58 ± 0.34
19,TTTTTTTTACATGAACGTACATAATATATTTTATAA [XGTACX_site5249],8.48 ± 0.44
20,ATGTAAAAATAAAGATGTACATGTATATATATATAT [XGTACX_site5193],10.1 ± 0.24
21,CCTATAATTAGGGGTAGTACACAAAAAAAAAAAAAA [XGTACX_site6396],8.37 ± 0.49
22,AATATATATTCATGTGTACACACAAAAAAAAATAAA [CACACA_site8690],8.77 ± 0.31

row,Sequence,gcPBM binding intensity (ln)
1,TTAAAAAAGAATTGTGCACACACAAAAAATGTTCAT [CACACA_site1102],8.46 ± 0.29
2,AATTCCTTATACAATTGTACATAAAAAGAATAAAAA [XGTACX_site1343],8.67 ± 0.41
3,CATTTTTTAAGCATCACACACGAAAGAACAAAGTGG [CACACA_site4755],9.04 ± 0.58
4,TTTTTTTTTTTAAGGTGTACAATAAAAATTTATGCA [XGTACX_site8860],8.52 ± 0.18
5,TGGAAAATTATAAGGTGTACATATAAGCTATTATAT [XGTACX_site118],8.59 ± 0.35
6,CATATATAAAATATATGTACTTATAGAACATAATTT [XGTACX_site1936],8.1 ± 0.26
7,TAATAAGTATAAAATAGTACATATAAATATATCAAA [XGTACX_site8834],8.48 ± 0.38
8,AGGAATAAATAATTAACACACACAATCTTTTTTTTT [CACACA_site9027],8.39 ± 0.31
9,ATAATATTAGTAAACACACTCAAATTATATATGATA [CACACA_site5721],8.28 ± 0.59
10,AAATAAAAAAACTATTGTACTGAATACAAATTAAAT [XGTACX_site3793],8.52 ± 0.35
11,ACTTTTTCACATAAAAATGATCCGATTAGTAATAAT [XGTACX_negctrl_site248],8.49 ± 0.59
12,AGTATACATTCATTTTGTACTCAATGATTTGATAAC [XGTACX_site6787],8.55 ± 0.46
13,ATAATTATATTCCATACACACATATATTTAAAGGTT [CACACA_site2957],8.59 ± 0.33
14,TAAATAAATACATACACACACATACATATATATATA [CACACA_site3129],9.86 ± 0.26
15,TTATTGTTTATTAAATGTACAGATTCGTTAAAATTA [XGTACX_site3041],8.47 ± 0.33
16,CTAGCAAATACATACACACACACACCCATACATATA [CACACA_site3496],8.64 ± 0.49
17,TATTTTTTTGTGTTTGGTACACACGTTATAAAAAAT [XGTACX_site2655],8.44 ± 0.26
18,ACAACAATATGGAATTGTACATATATATATAAATAT [XGTACX_site3139],8.56 ± 0.26
19,GAACAAATAAAAAGGAGTACAATCAAATCTACGTAT [XGTACX_site343],8.78 ± 0.57
20,TACACAAAACATAAAAGTACATAATAATAAAGTTAA [XGTACX_site8872],8.86 ± 0.39
21,TTATAATAAATATGAAGTACTATAAATATGGTATAT [XGTACX_site5448],8.55 ± 0.26
22,AATAAATATAGGAATACACACAATATAAATGTATTG [CACACA_site3366],8.4 ± 0.4

row,Sequence,gcPBM binding intensity (ln)
1,ATCGCATAAAGACAAGAACACACATATATATTGTAG [CACACA_site9229],8.55 ± 0.38
2,CACTAAAATGGACACACACACACACCGATATATATA [CACACA_site6139],8.79 ± 0.48
3,TTTTTATTGAGAACAGTGCAAATAACAAAAAAAAAA,9.07 ± 0.16
4,ATTTGGCATAAACACACACACACACCCACCCACATA [CACACA_site8096],9.17 ± 0.64
5,AACAAATAAGATAAATGACTTAACAAAAGAAAAAAG [CACACA_negctrl_site1409],8.76 ± 0.47
6,TTTTAATTATATTATGCACACACAATTGGAAAAAAA [CACACA_site8598],8.71 ± 0.12
7,GTAAAAAATATGAATACACACATAAAGGAAATAACA [CACACA_site1997],8.93 ± 0.3
8,AAAAAAAAAAAATTCACACACATATAAAAAATTAAG [CACACA_site728],8.39 ± 0.45
9,TTTTTTTTTTTTTTTTTTTTTTTTGGGTCCCATACA [CACACA_negctrl_site913],8.1 ± 0.47
10,TAATATATAAGTATTTGTACATATTCATTCATCTAT [XGTACX_site2935],8.37 ± 0.28
11,AAAAAAAAAAAAAAAAGTACAGACGTCAAAAAAAAA [XGTACX_site4817],8.89 ± 0.092
12,CACTATCAATATATATGTACATATATATATATATAT [XGTACX_site7854],10.1 ± 0.46
13,GTCACATTGTTATATTGTACAAATGTCGTTCTTTTT [XGTACX_site8098],8.86 ± 0.37
14,ATATAAAAATATATTAATATAAATAAATGGACATAT [XGTACX_negctrl_site488],8.73 ± 0.36
15,TAAATATATAAATACACACAAACATACATATATATA [CACACA_site4050],8.78 ± 0.29
16,CTTATACATTATTAACGTACATGTTATATGAATAAC [XGTACX_site5752],8.48 ± 0.21
17,AACATTATAGGACACACACACACATATATATATATA [CACACA_site4721],10.3 ± 0.13
18,TTTTTTTTTTTTTTTTTTTTTTTTAAATGCTTCTAA [TGCATGCA_negctrl_site253],7.84 ± 0.3
19,CATTATGTTGTAAATACACACATACCTATACATACA [CACACA_site6485],8.56 ± 0.4
20,TCTGAGAATGATAAAAAAAAAAAAAATGAAAAATTA [CACACA_negctrl_site1478],8.15 ± 0.54
21,ACGATATTTTTGGTGACACACATATATATATATATA [CACACA_site126],10.1 ± 0.46
22,TTTTTTTTTTTATCTGCACACCCTTTTGTGAATATT [CACACA_site789],8.65 ± 0.42

row,Sequence,gcPBM binding intensity (ln)
1,TATTTATTTATATTTACACACATTCATATAAATTCA [CACACA_site7628],8.53 ± 0.38
2,AAAACTTTTAGTTATACACACAACATAGAAAATATT [CACACA_site6287],8.65 ± 0.38
3,AATGAGCGTTAAAAATGTACAGAAAATTGGAATTAT [XGTACX_site5743],8.87 ± 0.37
4,CTCCTACAAATATGTAGTACATTCAAAATAAATACC [XGTACX_site8207],8.56 ± 0.28
5,AACAATCAAATAGACACACACACACCCAAACATAAA [CACACA_site2757],8.63 ± 0.57
6,ATGCAATAAATATACACACACAAATCTATATTTATA [CACACA_site7179],8.48 ± 0.43
7,AAAAAATGGATGATCACACACTTCATAAAAGTTGCA [CACACA_site7109],8.41 ± 0.44
8,TTTTTTTTGTAGAATTGTACTTATAAAATATATATA [XGTACX_site2116],8.19 ± 0.34
9,AAATAAAATAATTATAATACTAAAAATAATACATAA [GTGCAC_negctrl_site106],8.46 ± 0.36
10,AATTATTATATATATATATATATATATTTATATATT [GTGCAC_negctrl_site387],8.37 ± 0.17
11,AGTTCAAGGATTAAGACACACATATAAATAAATAAA [CACACA_site3662],8.64 ± 0.43
12,ATATATAAAAAAGCTAGTACACAAAAATATATAATG [XGTACX_site3001],8.97 ± 0.51
13,TTCTTTTCTCTTTTAATCATATTATATAAATGAATA [CACACA_negctrl_site820],8.58 ± 0.49
14,AAAAAAATTTATTAAAGTACTAGATAATCATATAAA [XGTACX_site1455],8.43 ± 0.37
15,CCTTTCACATATAATACATGCATTATTATATATGAA [TGCATGCA_site287],8.9 ± 0.47
16,ATTATAAATAAATATTGTACTTATATGATCTATTTG [XGTACX_site3820],8.18 ± 0.35
17,AGAATAATATAATAAAGTACAAACCTATCTAACTAC [XGTACX_site5477],8.81 ± 0.3
18,ATTGCATTTGTAGATAATACAATATGGATTGTTATA [CACACA_negctrl_site1749],8.1 ± 0.43
19,GGATATATTATATGTACACACACATATAAGGGATTA [CACACA_site7884],8.53 ± 0.33
20,AAAAATTTTATATTCACACACATATTTATATTTATA [CACACA_site6439],8.25 ± 0.27
21,GAGTAAAAATTAAAATGTACATATTATATATATTTA [XGTACX_site1319],8.15 ± 0.28
22,AAATCCTTATTTTTTTGTACGTAATATTTTATATGG [XGTACX_site1530],8.74 ± 0.45
